Experimental data as given in the supplement of paper PMC10681739.
In all, about 4,100 sequences were measured (“arbitrary fluorescence units”: median about 780, highest 2% from about 22,000 on). The list shows a part of the results.

What follows are sequences tested against T1, ETS1 (UniProt P14921) (assay: ETS1 binding intensity (PBM fluorescence), ETS1 alone (arbitrary fluorescence units); higher = stronger binding). Conditions: ETS1 concentration 1 nM; RUNX1 concentration 0 nM.
T1 sequence: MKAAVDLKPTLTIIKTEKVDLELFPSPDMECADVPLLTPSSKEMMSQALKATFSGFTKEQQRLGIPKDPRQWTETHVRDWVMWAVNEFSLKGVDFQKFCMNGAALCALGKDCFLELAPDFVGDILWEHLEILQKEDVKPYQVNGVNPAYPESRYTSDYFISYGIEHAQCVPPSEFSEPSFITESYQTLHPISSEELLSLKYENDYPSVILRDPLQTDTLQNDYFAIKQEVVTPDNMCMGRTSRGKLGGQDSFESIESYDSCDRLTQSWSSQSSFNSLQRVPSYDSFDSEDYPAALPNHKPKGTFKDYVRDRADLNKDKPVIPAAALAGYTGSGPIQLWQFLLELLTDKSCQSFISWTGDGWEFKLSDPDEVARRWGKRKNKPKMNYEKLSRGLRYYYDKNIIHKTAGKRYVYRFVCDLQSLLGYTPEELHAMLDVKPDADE
How it was run: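 Double-stranded Agilent 4 × 180k arrays held 36-bp genomic probes whose RUNX1 partner site was mutated, and these were incubated with 1 nM full-length recombinant human ETS1 in the absence of RUNX1 under standard PBM protocols. Bound protein was labelled with anti-ETS1 antibody (Cell Signaling Technology 14069) plus an Alexa488-conjugated secondary and read on a GenePix 4400A, with four spots printed per sequence. Binding level is reported as raw spot fluorescence intensity summarised over replicate spots.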

Row | Sequence | ETS1 binding intensity
1 | ATAGAAACTACAGGAAATACTGTGCTCAGGTTTTGA | 2430
2 | TGAGGCTCAGAGGAAGTGACTGGCCCTCAGGGTCAC | 1050
3 | GCTGACCCTGAGGGTGGCAGGAAGGAAGAGGAGTGA | 455
4 | GCTGTAGGAAATGTTATTCGCCGCGATCAGGACAGG | 536
5 | GGCAGCAAGAAAGGAAATAGTGTGCTTGGGTGGAGA | 911
6 | AACCCAGAGCTACCAGACAGCACAGGATGCAGACAA | 550
7 | CTGCGCGGCCGGAAGTCGGCGGATTCCCAGACGACG | 20700
8 | TTCTCTGCACTGCGATTTACTCAGGAAGAAGACAAC | 385
9 | AGCGTGCTCTTCGGTTCACTTCCGGCCAGCCCCTCC | 9360
10 | TGCGACGCGGCTAAGCCGGGCGAAGGCCGGAAGCGG | 1180
11 | TCGCCCGCCGCTTCCTGTCGCGGCGCCGCTGAGGCC | 12900
12 | CACCCGAACGGAAACACCTGCTGCTGAGGGGAGGGG | 1940
13 | CTCCCCAGGATGAGGGTCCCAGGGCTTACTCGCGCC | 331
14 | GGCGGGTTCCGGCTATTCCCTTCGAGGTCCAGTTTA | 2250
15 | CCTGTGCTGAGGGCTCAGGCGGAACCCGAAACGGTC | 371
16 | TCTGGACCAGCAGGCCGCTCAGTTTCCCGGTGTCCA | 358
17 | CTGCTGTAAAAATAGGCAGTGGGGGAGGAAGTTCAC | 535
18 | GAAGCCCAACAGGATGCCGAGTAAGCACCCACTGAA | 1520
19 | ACTAGAGCCAGCCACCTGCCTTCCGTCTTCCAGGCA | 417
20 | ATCTCACTGTGATTTTACTTTGCATTTCCTGTACTC | 1470
21 | TGATGTGATTTTGAAAGTGGAAGAGGGCAGGAAGTG | 637

Row | Sequence | ETS1 binding intensity
22 | CCCAGCCCTTCCTGCAGGGTCGCTTGTAGGTCGGGT | 1520
23 | AAGTGGAGAGCGGAAGTGAGCTGTAGGTGACTGCAG | 10700
24 | GCTGGGGGGCTCCCGAAGAGGCAGGGAAGTGGCGGG | 617
25 | CTCCCACGCTCCCCTTCCGGCCCCGCTGCGCTGTGA | 3160
26 | TGCTGTCAAGTCACAGGCCTTTCCTGCTATCGTTTG | 569
27 | CACTGATAACTACCTCTCTACACTGCTTCCGCAGTG | 827
28 | GAACCACTTCCCTGAAACCATTTATCACATAAATCT | 1510
29 | GTCAGGCAGCTGTGCTCTTGCACGGAAGTCTTTAAT | 512
30 | TGGAGCCGGGGAAACGGCCAAGGTGGCGGGAGTCTC | 302
31 | GAGGTCCTGGAGGTTTCATTTCCGGGTGCAGCTTCT | 5230
32 | GAGAATCCACGCAAACCAAGCCACTTCCCCCAAGTC | 397
33 | CTAATGGCGAAAGCACGGAGAGAAGGAAGTGAAGAA | 507
34 | GATGAAAAGGAAACAAACTTGAGCTTCGGCGATGGG | 512
35 | GAAAGACAGGATGTGGGATAGATCTCAAGCACCTTT | 6280
36 | GCAAGACCTCGCATTAACATCTCGGAAACGGACAGC | 425
37 | TACAGTTCCGCTTGCTGTGATTTCAGTTACCCTCAG | 3600
38 | GCGCTTCCCGGCGTGCCCCGCGCAGCGGCCTGAAGG | 1730
39 | ACGGAGCTGTAGTTTAACGTTTCCGGTTCGTGGCTA | 9580
40 | CAGCGGCGGATTCGGCGGTGGCGGAAGTGGAGTGGG | 2010
41 | CCAGCAGCACATCCCCCTTCTTCGTCCCGAAGAGGG | 532
42 | CTGAGACATCCTGATAATTCTGTAGGTTACCCCAAA | 1950

Row | Sequence | ETS1 binding intensity
43 | TTTCTTTCTGTGATTTATCCTTATTTCCTGGCTTCG | 788
44 | ATCGAGGAGCACGGTTACCGGACGGGCTGGGTCTAT | 303
45 | CAGAAACAGCAGAACTGAGCTGACGACCCGGAAGTG | 851
46 | GAGGCGTTTCCGCCTCCTTTTCGGGGTTGCCTTCTC | 7760
47 | AGCGCTTCCTGGCTCCGGCCCCGCCCCTGCAGTCGG | 6440
48 | GTGGGGGGCGGCTTGTTGGGGCGTCCGGTTCGCCGC | 1280
49 | CTTATCCCAGAAGGGCACCTGGCCGGAATAATGGAG | 342
50 | ACCCTCTTTCCGGTGGAAAGCGGCGGCCTCCCAGAG | 11900
51 | GTTCATCCAGGAAACCCCAACCCAGTGCCGCTGTAT | 702
52 | TGCCGCCTGCAGCACCCTCCCCATTTCCTGGCTGTA | 1190
53 | CTCCTGAGGAAGTAGTTACAGACACCCCAGCGGAGG | 708
54 | TGTGGAGACAGGAAGCACTAACCCCAAACCTCTTTC | 2810
55 | AGCTGTTCCGCCACGCTCGGCGTGGGCCGAGGTGGG | 489
56 | AGATCTTATAAGCTGCACAGGCCGGAAGGAAAAGGG | 654
57 | CCAGAGACAACAGCCACTCTCTTCTCCCCATCCGCC | 364
58 | CGTGGCGGGTGAGGGGCAGTGGTGGCGGCGGAAGCC | 542
59 | GCCCGGCCGCCTACGGCCCGGCTTCCGGTCCCGTCT | 7540
60 | CAGTCGCCAGAAAGCACAGCACTTCCGCCTGCTTCA | 3760
61 | GCAGGTCCACGGCGCATGCCTGAAGAGGAAGCCCAG | 290
62 | GTGTCGTGAGCCACAGGCTGCCATAGATCCGGAGGC | 371
